# Test results: the supplement of paper PMC10670038
# Counter-ions that a name gives are not always drawn. ± gives the standard deviation of the averaged measurements. Whole data set: some 2,000 compounds, median “relative cell viability vs DMSO, compound alone” near 1.1, cut for the lowest 2% near 0.29. This is one part of the list.
# Tested on: TE10
# Test: relative cell viability vs DMSO, compound alone (fraction); TE10 is an esophageal squamous carcinoma line; higher = less cytotoxic
# Settings: 2 µM; 48 h
# Procedure: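 TE10 ESCC cells (1,000/well, 384-well plates) were treated with Selleck bioactive library compounds at 2 uM alone for 48 h. Viability was read by CellTiter-Glo and expressed relative to DMSO wells. Two technical replicates (A, B).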
row,Compound,relative cell viability
1,Cc1cc(=O)oc2cc(O)ccc12 [4-Methylumbelliferone (4-MU)],1.106 ± 0.0097
2,O=C(Nc1ccc(OC(F)(F)F)cc1)c1sccc1NCc1ccnc2ccccc12,1.22 ± 0.039
3,COc1cc(/C=C/C(=O)N2CCN(CC(=O)N3CCCC3)CC2)cc(OC)c1OC [Cinepazide maleate],1.17 ± 0.029
4,Nc1ncn([C@@H]2O[C@H](CO)[C@@H](O)[C@H]2O)c(=O)n1 [Azacitidine],1.11 ± 0.068
5,CC(COc1ccccc1)N(CCCl)Cc1ccccc1 (configuration not stated) [Phenoxybenzamine HCl],1.01 ± 0.013
6,CCCNC(C)C(=O)Nc1ccccc1C (configuration not stated) [Prilocaine],1.02 ± 0.11
7,CC(=O)Nc1cccc2c1c(Sc1ccc(Cl)cc1)c(C)n2CC(=O)O,1.1 ± 0.036
8,Cc1c(-c2ccnn2C)cc(C(=O)NCc2ccc(S(C)(=O)=O)cn2)c(=O)n1-c1cccc(C(F)(F)F)c1 [Alvelestat (AZD9668)],0.9353 ± 0.0011
9,O=C(Nc1cccc2cccnc12)c1ccc(N2C(=O)C3C4C=CC(C4)C3C2=O)cc1 (stereo not drawn) [IWR-1-endo],1.09 ± 0.053
10,CC1(C)CC(=O)c2c(C(F)(F)F)nn(-c3ccc(C(N)=O)c(N[C@H]4CC[C@H](O)CC4)c3)c2C1,0.547 ± 0.015
11,O=C(O)/C=C/c1ccc(O)c(O)c1 [Caffeic Acid],1.105 ± 0.0066
12,CCCCc1nc2cc(/C=C/C(=O)NO)ccc2n1CCN(CC)CC [Pracinostat (SB939)],0.371 ± 0.022
13,Oc1ccc2ccccc2c1SSc1c(O)ccc2ccccc12,1.06 ± 0.031
14,COc1cc2nc(N(C)CCCNC(=O)C3CCCO3)nc(N)c2cc1OC (configuration not stated) [Alfuzosin HCl],1.26 ± 0.038
15,N#CSc1cc(SC#N)c(N)nc1N,1.05 ± 0.034
16,CCCCCOc1ccc(-c2cc(-c3ccc(C(=O)N[C@H]4C[C@@H](O)[C@@H](O)NC(=O)[C@@H]5[C@@H](O)[C@@H](C)CN5C(=O)[C@H]([C@H](O)CC(N)=O)NC(=O)[C@H]([C@H](O)[C@@H](O)c5ccc(O)c(OS(=O)(=O)O)c5)NC(=O)[C@@H]5C[C@@H](O)CN5C(=O)[C@H]([C@@H](C)O)NC4=O)cc3)no2)cc1 [Micafungin Sodium],1.02 ± 0.032
17,CC(C)n1nc(-c2ccc3oc(N)nc3c2)c2c(N)ncnc21,0.371 ± 0.0077
18,O=C(O)c1cc(C(F)(F)F)ccc1N1CC[C@H](OCc2ccccn2)C1,1.03 ± 0.17
19,CC(=O)Nc1nc2c(Oc3cc(-c4ccc(C(F)(F)F)cc4)ncn3)cccc2s1,1.07 ± 0.032
20,N[C@@H](Cc1c[nH]c2ccc(O)cc12)C(=O)O [5-hydroxytryptophan (5-HTP)],1.12 ± 0.021
21,Cc1[nH]c2ccccc2c1C1=C(NCCc2ccc(F)cc2)C(=O)N(C)C1=O,1.19 ± 0.06
22,N=C(N)Nc1ccc(C(=O)Oc2ccc3cc(C(=N)N)ccc3c2)cc1 [Nafamostat Mesylate],0.943 ± 0.15
23,O=C(NO)c1cccc(C(=O)NCCc2ccccc2)c1,1.17 ± 0.047
24,CCCSc1nc(N[C@@H]2C[C@H]2c2ccc(F)c(F)c2)c2nnn([C@@H]3C[C@H](OCCO)[C@@H](O)[C@H]3O)c2n1 [Ticagrelor],1.02 ± 0.059
25,C=CC(=O)Nc1cccc(Nc2nc(Nc3ccc(Oc4ccnc(C(=O)NC)c4)cc3)ncc2F)c1,1.08 ± 0.05
26,O=C(O)COCCN1CCN(C(c2ccccc2)c2ccc(Cl)cc2)CC1 (configuration not stated) [Cetirizine DiHCl],1.18 ± 0.12

row,Compound,relative cell viability
1,Cc1cc(C)c(-c2csc(NC(=O)c3ccccc3)n2)c(C)c1,1.13 ± 0.029
2,COc1ccc(-c2ccc3ncc4c(c3c2)n(-c2ccc(N3CCNCC3)c(C(F)(F)F)c2)c(=O)n4C)cn1,0.0662 ± 0.0018
3,CC(C)c1cc(-c2n[nH]c(=O)n2-c2ccc3c(ccn3C)c2)c(O)cc1O [Ganetespib (STA-9090)],0.59 ± 0.018
4,CC(=O)O[C@]1(C(C)=O)CC[C@H]2[C@@H]3C=C(Cl)C4=CC(=O)[C@@H]5C[C@@H]5[C@]4(C)[C@H]3CC[C@@]21C [Cyproterone Acetate],1.166 ± 0.0044
5,Cc1ncc(CO)c(CO)c1O [Pyridoxine HCl],1.12 ± 0.03
6,O=C(O)c1ccc(-c2c[nH]c3ncc(-c4ccccc4)cc23)cc1C1CCCC1,1.101 ± 0.0019
7,C[C@H](O)[C@H](O)[C@@H](O)[C@@H](O)C=O [L-(+)-Rhamnose Monohydrate],1.09 ± 0.058
8,Cc1ccc(NCCCc2ccccc2)c(N)c1,1.18 ± 0.018
9,C=CC(=O)Nc1cc(Nc2nccc(-c3cn(C)c4ccccc34)n2)c(OC)cc1N(C)CCN(C)C,0.996 ± 0.036
10,C#Cc1cccc(Nc2ncnc3cc4c(cc23)OCCOCCOCCO4)c1 [Icotinib],1.04 ± 0.039
11,C=CC(=O)Nc1cc(Nc2nccc(-c3c[nH]c4ccccc34)n2)c(OC)cc1N(C)CCN(C)C,0.807 ± 0.014
12,CC1=C(/C=C/C(C)=C/C=C/C(C)=C/C(=O)O)C(C)(C)CCC1 [Tretinoin],0.915 ± 0.037
13,C[C@]12CC[C@H](O)CC1=CC[C@@H]1[C@@H]2CC[C@]2(C)C(n3cnc4ccccc43)=CC[C@@H]12 [Galeterone],1.06 ± 0.14
14,Nc1nc(NC2CC2)cc(-c2cccc(Cl)c2Cl)n1,0.9023 ± 0.0067
15,CNS(=O)(=O)CCc1ccc2[nH]cc(C3CCN(C)CC3)c2c1 [Naratriptan],1.14 ± 0.086
16,CC(=O)Oc1ccccc1C(=O)O [Aspirin],0.99912 ± 0.00059
17,N=C(N)NS(=O)(=O)c1ccc(N)cc1 [Sulfaguanidine],1.16 ± 0.013
18,COc1ccc2ccc(=O)oc2c1CC=C(C)C [Osthole],1.11 ± 0.053
19,O=C(Nc1nc2cccc(-c3ccc(CN4CCS(=O)(=O)CC4)cc3)n2n1)C1CC1 [Filgotinib (GLPG0634)],1.06 ± 0.026
20,CC(=O)[C@H]1CC[C@H]2[C@@H]3CCC4=CC(=O)CC[C@]4(C)[C@H]3CC[C@]12C [Progesterone],1.02 ± 0.0047
21,Cn1cc(CNCC2CCN(c3ncc(C(=O)NO)cn3)CC2)c2ccccc21,0.078 ± 0.0008
22,CN(C)CC/C=C1/c2ccccc2Sc2ccc(Cl)cc21 [Chlorprothixene],0.973 ± 0.067
23,Cc1cc(=O)oc2c(C=O)c(O)ccc12,1.17 ± 0.034
24,CN(C)CCOC(c1ccccc1)c1ccccc1 [Diphenhydramine HCl],1.02 ± 0.012
25,CCOC(=O)CCNc1cc(N2CCc3ccccc3CC2)nc(-c2ccccn2)n1,0.957 ± 0.1
26,COc1ccc2[nH]c([S+]([O-])Cc3ncc(C)c(OC)c3C)nc2n1 (configuration not stated) [Tenatoprazole],1.11 ± 0.014
